Laboratory results reported in PubChem BioAssay AID2147 (National Center for Advancing Translational Sciences (NCATS), 2009).
Values joined by “and” are separate entries in the source; they are usually repeats but may differ in a detail not shown here. Equal values may be shown once. The campaign covered roughly 230,000 compounds. About 3,600 (1.6%) were called active. The shares of active, inactive and inconclusive entries below differ from those in the screen. Calls follow the shape of the dose curve; as a rule, active = well fitted inhibition curve with a large enough effect (not every such curve was filed as active); inconclusive = small, poorly fitted or top-dose-only effect, or another doubt; inactive = no such curve, though single readings can be large or run the other way. Potencies of inconclusive entries are doubtful fits and often do not repeat.

target: Lysine-specific demethylase 4E (Homo sapiens) (UniProt B2RXH2); test: qHTS Assay for Inhibitors of Human Jumonji Domain Containing 2E (JMJD2E); conditions: JMJD2E catalytic domain, FDH-coupled NADH fluorescence (FDH is formaldehyde dehydrogenase); series mostly up to 57.1 µM; activity change, negative = inhibition: at the top concentration
Also: nearly all actives have a fitted effect of over 50% in size.
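For activity change, negative = inhibition in this document: 0% = wells with enzyme and -100% = buffer wells without enzyme.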
Potency is read from the fitted curve at half-maximal effect; tags tell the direction and shape of the fitted curve.

UniProt B2RXH2, sequence (B2RXH2 whole entry, looked up, the tested form may be a part): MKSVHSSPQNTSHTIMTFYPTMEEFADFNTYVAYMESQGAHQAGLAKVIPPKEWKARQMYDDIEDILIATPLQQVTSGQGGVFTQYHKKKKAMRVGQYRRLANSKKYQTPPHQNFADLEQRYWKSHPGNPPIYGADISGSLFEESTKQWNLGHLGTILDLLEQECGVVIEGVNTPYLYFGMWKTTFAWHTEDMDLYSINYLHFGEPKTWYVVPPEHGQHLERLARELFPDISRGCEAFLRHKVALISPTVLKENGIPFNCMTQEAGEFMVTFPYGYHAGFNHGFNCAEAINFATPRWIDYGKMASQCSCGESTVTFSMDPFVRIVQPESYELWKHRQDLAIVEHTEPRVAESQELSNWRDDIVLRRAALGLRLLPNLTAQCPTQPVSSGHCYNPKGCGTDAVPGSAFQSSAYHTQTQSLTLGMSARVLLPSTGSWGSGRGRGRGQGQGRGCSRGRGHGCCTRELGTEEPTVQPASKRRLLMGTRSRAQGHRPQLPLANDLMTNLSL

| SMILES | Potency | activity change, negative = inhibition |
| --- | --- | --- |
| CCOC(=O)c1nnn(CC(=O)N2N=C(c3ccc(Cl)cc3)CC2c2ccc(OC)cc2)c1C(=O)OCC (centres undefined) | active: 31.6 µM | – |
| Cc1cc(C)cc(C(=O)NC(=S)Nc2ccc3c(c2)OCCO3)c1 | – | inactive: -9.29% |
| CCNC(=S)NNC(=O)c1ccccn1 | inconclusive: 35.5 µM [inhibitor, single point] | – |
| CCCCCCOc1ccc(N2C(=O)CC(S/C(N)=N/N=C(\C)c3cccs3)C2=O)cc1 (centres undefined) | – | inactive: -1.59% |
| CCN(CC)CC(=O)Nc1cc(N(C)C)nc2ccccc12 | inconclusive: 25.1 µM [inhibitor, partial curve] | – |
| CC1CCCC(NC(=O)CCC(=O)c2ccc(F)cc2)C1C (centres undefined) | – | inactive: -4.3% |
| CCOC(=O)/C(=C\c1cccc(O)c1)c1nc2sc(C)c(C)c2c(=O)[nH]1 | – | inactive: -4.28% |
| CCOC(=O)c1ccc(Cl)c(S(=O)(=O)N2CCCC2)c1 | – | inactive: -5.74% |
| COc1ccc(N=C(c2ccccc2)c2c(C)[nH]n(-c3ccccc3)c2=O)c(OC)c1 | – | inactive: 1.56% |
| O=C(CSc1cccs1)Nc1ccc2ccccc2c1 | – | inactive: -3.58% |
| CCOC(=O)N1CCN(Cc2cc(=O)oc3cc4c(cc23)CCC4)CC1 | inconclusive: 39.8 µM [inhibitor, single point] | – |
| COc1ccccc1C(=O)N/C(=C/c1ccccc1)C(=O)Nc1ccc(C(=O)O)cc1 | – | inactive: -1.32% |
| COC(=O)c1ccc(Cl)c(NS(=O)(=O)c2ccc3c(c2)OCCO3)c1 | inconclusive: 28.2 µM [inhibitor, single point] | – |
| O=C(CC(Nc1cccc(Cl)c1Cl)C(=O)O)c1ccccc1 (centres undefined) | inconclusive: 31.6 µM [inhibitor, single point] | – |
| O=C(c1ccc(Cl)cc1Cl)N1CCC(c2nc3c(nnn3Cc3ccco3)c(=O)[nH]2)CC1 | – | inactive: 5.62% |
| CC(=O)N/C(N)=N/c1nc2cc(C)ccc2o1 | inconclusive: 28.2 µM [inhibitor, single point] | – |
| CN1CCN(CCCNC(=O)c2ccc3c(c2)N(Cc2ccccc2)CCS3)CC1 | inconclusive: 31.6 µM [inhibitor, partial curve] | – |
| O=C(NCCc1cccc(F)c1)/C(=C/c1cccnc1)NC(=O)c1ccccc1 | – | inactive: -24.1% |
| CC1(OC(=O)CCc2ccccc2)C(=O)C=C2C=C(c3ccc(C#N)cc3)N(CC3CC3)C=C2C1=O (centres undefined) | inconclusive: 25.1 µM [inhibitor, single point] and inconclusive: 4.47 µM [inhibitor, partial curve] | – |
| NC(=O)c1ccccc1NC(=S)NC(=O)c1ccc(Br)o1 | inconclusive: 22.4 µM [inhibitor, partial curve] | – |
| Cc1c2ccccc2cc[n+]1CCCS(=O)(=O)[O-] | inconclusive: 31.6 µM [inhibitor, partial curve] | – |
| Oc1ccc(/C=N/Nc2ccccc2)cc1 | – | inactive: 3.91% |
| O=C(NCc1ccccc1)c1cccc(COc2ccc(Cl)cc2)c1 | – | inactive: 1.99% |
| O=C(/C=C/c1ccccn1)c1cc(Cl)cc(Cl)c1O | inconclusive: 39.8 µM [inhibitor, single point] | – |
| CCc1ccc(OCC(=O)N/N=C2\CC(=O)c3ccccc32)cc1 | – | inactive: 1.52% |

| SMILES | Potency | activity change, negative = inhibition |
| --- | --- | --- |
| CCc1cc2c(=O)c(-c3ccc4c(c3)OCCO4)c(C)oc2cc1OS(C)(=O)=O | – | inactive: 5.17% |
| O=C(COc1ccc(Br)cc1CNCCc1ccccc1)NCc1ccccc1 | – | inactive: 5.83% |
| COC(=O)Nc1ccc(S(=O)(=O)NCc2ccccn2)cc1 | – | inactive: 6% |
| CC1CCC(C(=O)c2c(O)c3ccccc3oc2=O)CC1 (centres undefined) | inconclusive: 35.5 µM [inhibitor, single point] | – |
| CCN(Cc1ccccc1)Cc1c(F)cccc1F | inconclusive: 39.8 µM [inhibitor, single point] | – |
| Cc1cc(C)n2nc(SCN3C(=O)c4ccccc4C3=O)nc2n1 | – | inactive: 3.93% |
| O=C(Nc1ccc2nn(-c3ccccc3)nc2c1)c1ccc2c(c1)OCCO2 | inconclusive: 25.1 µM [inhibitor, partial curve] | – |
| CC(=O)N/N=C/c1cc(C(C)C)cc(/C=N/NC(C)=O)c1O | inconclusive: 1 µM [inhibitor, full curve, poor fit] | – |
| CCOc1ccc(N2C(=O)CSC23CCCCC3)cc1 | – | inactive: -5.84% |
| O=C(Cn1cnc2ccccc2c1=O)NCC(=O)N1CCN(c2ccccn2)CC1 | inconclusive: 35.5 µM [inhibitor, single point] | – |
| CCOC(=O)COc1cccc2c(=O)n(CC(=O)NCCc3ccccc3)ccc12 | inconclusive: 39.8 µM [inhibitor, single point] | – |
| O=C(NN=C1C2CC3CC(C2)CC1C3)c1cccs1 | – | inactive: 66.4% |
| Cc1ccc(C(=O)c2ccc(C)cc2)cc1 | – | inactive: 2.54% |
| Cn1c2c(c(=O)n(C)c1=O)C(c1ccccc1F)C(C#N)=C(N)O2 (centres undefined) | inconclusive: 22.4 µM [inhibitor, partial curve, poor fit] | – |
| COc1ccc2ccc3c(c2c1)N=C[C@]1(O3)N(C)c2ccccc2C1(C)C | active: 11.2 µM | – |
| Clc1ccc2[nH]c(-c3ccccc3)cc2c1 | inconclusive: 31.6 µM [inhibitor, partial curve] | – |
| CSc1ccccc1-c1nnc(-c2ccccc2)o1 | inconclusive: 31.6 µM [inhibitor, partial curve] | – |
| C[C@@H]1CC=C[C@H]2[C@H]1C(=O)N(Cc1ccccc1)[C@H]2c1ccc(-c2ccc(N(C)C)cc2)cc1F | inconclusive: 22.4 µM [inhibitor, partial curve] | – |
| O=C(Nc1ccc2nsnc2c1)NC1CCCCC1 | inconclusive: 28.2 µM [inhibitor, partial curve] | – |
| CCC/C(=N/NC(=O)c1cccc(Cl)c1)c1ccccc1 | – | inactive: 3.63% |
| Fc1ccc(-c2ccc(-c3nn4c(-c5ccco5)nnc4s3)o2)cc1 | inconclusive: 31.6 µM [inhibitor, partial curve] | – |
| CCC(=O)Nc1ccc(OCc2nc3ccccc3s2)cc1 | – | inactive: -28.2% |
| O=C(NCc1ccc(Cl)cc1)c1cc2c(nc3sccn32)s1 | inconclusive: 35.5 µM [inhibitor, single point] | – |
| O=C1[C@H]2C(c3ccccc3)=NN(c3ccccc3)[C@H]2C(=O)N1c1ccccc1 | inconclusive: 28.2 µM [inhibitor, partial curve] | – |
